The record followed here is paper PMC9795039, “Kindlin2 enables EphB/ephrinB bi-directional signaling to support vascular development” (Life Science Alliance, 2022).

Sequences of proteins named here, by UniProt entry; tags and fusion partners are left off. A change or cut given only in a name is not applied to a line headed by its entry. Residues count along the entry.
UniProt P05556, residues 752-798: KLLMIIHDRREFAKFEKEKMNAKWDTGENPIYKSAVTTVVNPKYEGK
UniProt P54760, residues 16-987: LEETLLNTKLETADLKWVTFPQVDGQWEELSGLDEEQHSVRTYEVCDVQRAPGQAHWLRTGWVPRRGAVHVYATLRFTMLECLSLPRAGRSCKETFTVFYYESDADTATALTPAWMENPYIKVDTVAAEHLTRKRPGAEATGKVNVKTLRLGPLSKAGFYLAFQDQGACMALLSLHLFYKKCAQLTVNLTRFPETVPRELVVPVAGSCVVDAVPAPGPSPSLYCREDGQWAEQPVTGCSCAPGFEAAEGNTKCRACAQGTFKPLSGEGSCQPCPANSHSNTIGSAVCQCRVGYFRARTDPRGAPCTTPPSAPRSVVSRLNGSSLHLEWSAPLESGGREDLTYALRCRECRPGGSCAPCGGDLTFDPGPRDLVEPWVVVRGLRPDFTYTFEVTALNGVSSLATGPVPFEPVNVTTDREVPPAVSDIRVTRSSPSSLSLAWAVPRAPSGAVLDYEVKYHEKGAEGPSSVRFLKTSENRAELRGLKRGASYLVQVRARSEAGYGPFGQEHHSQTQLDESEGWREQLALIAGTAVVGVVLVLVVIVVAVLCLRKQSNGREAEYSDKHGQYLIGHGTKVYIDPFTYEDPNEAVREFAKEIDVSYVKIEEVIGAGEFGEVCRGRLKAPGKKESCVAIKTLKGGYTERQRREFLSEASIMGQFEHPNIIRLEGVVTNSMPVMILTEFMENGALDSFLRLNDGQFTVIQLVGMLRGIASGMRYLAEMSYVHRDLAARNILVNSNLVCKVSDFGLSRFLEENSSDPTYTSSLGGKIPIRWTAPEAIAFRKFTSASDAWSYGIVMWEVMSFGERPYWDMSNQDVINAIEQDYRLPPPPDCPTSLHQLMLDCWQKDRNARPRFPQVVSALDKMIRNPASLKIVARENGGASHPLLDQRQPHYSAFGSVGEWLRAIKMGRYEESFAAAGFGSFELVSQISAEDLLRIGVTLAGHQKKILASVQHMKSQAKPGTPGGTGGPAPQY
UniProt Q96AC1: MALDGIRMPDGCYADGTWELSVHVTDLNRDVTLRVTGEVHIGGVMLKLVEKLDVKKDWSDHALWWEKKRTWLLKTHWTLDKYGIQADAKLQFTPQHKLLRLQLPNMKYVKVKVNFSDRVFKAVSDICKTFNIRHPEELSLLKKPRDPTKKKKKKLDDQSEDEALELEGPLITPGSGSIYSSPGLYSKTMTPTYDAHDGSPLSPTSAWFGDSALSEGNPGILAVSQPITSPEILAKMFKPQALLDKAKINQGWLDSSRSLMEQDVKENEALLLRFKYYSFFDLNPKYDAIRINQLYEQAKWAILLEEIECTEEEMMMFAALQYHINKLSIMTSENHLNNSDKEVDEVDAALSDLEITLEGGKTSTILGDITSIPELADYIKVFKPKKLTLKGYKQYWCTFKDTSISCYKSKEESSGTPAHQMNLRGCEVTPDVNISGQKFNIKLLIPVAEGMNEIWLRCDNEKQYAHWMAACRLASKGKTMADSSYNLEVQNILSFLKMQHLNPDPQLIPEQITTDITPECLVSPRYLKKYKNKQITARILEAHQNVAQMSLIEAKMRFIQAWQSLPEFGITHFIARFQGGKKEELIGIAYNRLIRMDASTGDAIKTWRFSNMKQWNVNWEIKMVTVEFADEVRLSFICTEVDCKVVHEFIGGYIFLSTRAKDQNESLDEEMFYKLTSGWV
UniProt Q86UX7: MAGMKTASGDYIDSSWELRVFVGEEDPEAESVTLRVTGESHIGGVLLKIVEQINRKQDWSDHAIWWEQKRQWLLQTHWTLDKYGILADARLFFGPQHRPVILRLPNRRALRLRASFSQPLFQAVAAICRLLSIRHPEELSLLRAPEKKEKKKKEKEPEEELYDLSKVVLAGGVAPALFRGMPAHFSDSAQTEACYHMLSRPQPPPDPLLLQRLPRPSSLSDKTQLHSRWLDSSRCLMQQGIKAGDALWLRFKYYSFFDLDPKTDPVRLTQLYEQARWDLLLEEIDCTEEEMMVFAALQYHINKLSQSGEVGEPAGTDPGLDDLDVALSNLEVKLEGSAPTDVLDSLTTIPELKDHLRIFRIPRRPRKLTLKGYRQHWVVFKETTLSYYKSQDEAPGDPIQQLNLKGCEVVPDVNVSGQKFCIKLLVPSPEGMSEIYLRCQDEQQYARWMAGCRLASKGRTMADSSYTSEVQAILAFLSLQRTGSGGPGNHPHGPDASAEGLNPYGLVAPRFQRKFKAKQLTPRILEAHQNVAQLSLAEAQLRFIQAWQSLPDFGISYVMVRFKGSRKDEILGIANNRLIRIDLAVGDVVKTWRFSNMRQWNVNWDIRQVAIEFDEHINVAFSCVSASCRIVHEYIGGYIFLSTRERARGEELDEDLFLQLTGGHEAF

Changes are numbered by the printed parent chain. These are yes or no findings as the source states them, for the method shown. For some of these results: Binding seen in cells or lysates may run through a third protein. Some binding calls cover weakened binding; strength is not graded here. For some of these results: Tags and fused reporters may be left off the sequences shown.

Experiment [1] deals with T1, his/Avi-tagged cytoplasmic tail of ephrinB2 WT (UniProt P52799).
T1 sequence (chain, biotinylated): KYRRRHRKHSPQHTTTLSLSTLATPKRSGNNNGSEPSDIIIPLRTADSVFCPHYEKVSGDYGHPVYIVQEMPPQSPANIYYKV
The experiment can be described thus: pull-down; purified his/Avi-tagged cytoplasmic tails (5 µg) immobilised on NeutrAvidin beads, incubated with lysate of cells expressing the GFP-tagged protein at 4°C for 1 h in 50 mM Tris-Cl, 150 mM NaCl, 0.5% NP-40, 0.5% Triton X-100, 0.5 mM CaCl2, 0.5 mM MgCl2, pH 7.4; Western blot with anti-GFP antibody; only the target purified.

The target of experiment [2] is T2, his/Avi-tagged cytoplasmic tail of ephrinB1 (UniProt P98172).
T2 sequence (chain, biotinylated): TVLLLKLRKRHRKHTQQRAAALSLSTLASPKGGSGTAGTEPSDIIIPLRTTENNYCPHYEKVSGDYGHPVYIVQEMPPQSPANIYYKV
Described as above.

Experiment [3] addresses T3, his/Avi-tagged cytoplasmic tail of ephrinB2 4A (UniProt P52799).
T3 sequence (chain, biotinylated): T1 sequence (chain, biotinylated) with N78A, I79A, Y80A, Y81A
The experiment is described as above.

Experiment [4] concerns the target T4, his/Avi-tagged cytoplasmic tail of ephrinB3 (UniProt Q15768).
T4 sequence (chain, biotinylated): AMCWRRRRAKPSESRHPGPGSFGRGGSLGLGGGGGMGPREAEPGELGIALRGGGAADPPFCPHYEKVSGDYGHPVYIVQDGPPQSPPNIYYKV
The description is as above.

Experiment [5] addresses his/Avi-tagged cytoplasmic tail of integrin β1A (UniProt P05556). The experiment is described as above.
Experiment [6] addresses HA-EphB4 (UniProt P54760). The experiment is described as follows: co-IP; cells co-transfected with HA-EphB4 and flag-ephrinB2 WT or 6A; immunoprecipitation with anti-HA antibody, blot with anti-flag antibody.
In experiment [7] the target is HA-EphB4 (UniProt P54760). The experiment is described as follows: co-IP; BT16 stable cells (flag-ephrinB2) and HEK293 stable cells (HA-EphB4) mixed and co-cultured, lysed in NP-40 lysis buffer; immunoprecipitation with anti-HA antibody, blots with anti-HA and anti-flag antibodies; also after kindlin2 shRNA in BT16 or integrin β1 shRNA in HEK293.
For experiment [8], the target named is T3, his/Avi-tagged cytoplasmic tail of ephrinB2 4A. The experiment can be described thus: pull-down; in vitro binding assay: purified kindlin2 mixed with purified cytoplasmic tails immobilised on NeutrAvidin beads; Western blot with anti-kindlin2 antibody; both purified.
For experiment [9], the target named is flag-ephrinB2 (4A) (human) (UniProt P52799). The experiment can be described thus: co-IP; mCherry-kindlin2 co-transfected with flag-tagged proteins in HEK293 cells; immunoprecipitation with anti-flag antibody, blot with anti-mCherry antibody.
The target of a further experiment is flag-ephrinB2 (human) (UniProt P52799). The description is as above.
Experiment [10] has as its target T5, cytoplasmic tail of zebrafish ephrinB2a WT (zebrafish) (UniProt O73874).
T5 sequence: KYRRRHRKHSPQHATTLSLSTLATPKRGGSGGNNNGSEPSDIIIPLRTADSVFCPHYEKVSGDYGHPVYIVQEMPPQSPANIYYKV
The experiment is described as follows: pull-down; purified his/Avi-tagged cytoplasmic tails (5 µg) immobilised on NeutrAvidin beads, incubated with lysate of cells expressing the GFP-tagged protein at 4°C for 1 h in 50 mM Tris-Cl, 150 mM NaCl, 0.5% NP-40, 0.5% Triton X-100, 0.5 mM CaCl2, 0.5 mM MgCl2, pH 7.4; Western blot with anti-GFP antibody; only the target purified.

Experiment [11] has as its target T6, cytoplasmic tail of zebrafish ephrinB2a 4A (zebrafish) (UniProt O73874).
T6 sequence: T5 sequence with N81A, I82A, Y83A, Y84A
The description is as above.

In the case of “GFP-kindlin2 (from UniProt Q96AC1 1-680)”, the binding result in experiment [1] is “binds”; in experiment [2], “binds”; in experiment [3], “binds weakly”; in experiment [4], “binds”; in experiment [5] it was “binds”.

Consider “GFP-kindlin2 W615A (from UniProt Q96AC1 1-680)”, for which the binding result in experiment [1] was “binds”.

Take “flag-ephrinB2 6A (from UniProt P52799 28-333) (ligand)”: the binding entry with HA-EphB4 [6] is “no binding”.

Regarding “flag-ephrinB2 (BT16 stable cells) (from UniProt P52799 28-333) (ligand)”, the binding result with HA-EphB4 [7] is on record as “binds”.

On to “flag-ephrinB2 (from UniProt P52799 28-333) (ligand)”, for which the binding result in the experiment with HA-EphB4 [6] is recorded as “binds”.

On to “his-tagged human full-length kindlin2 (from UniProt Q96AC1 1-680)”, for which, in experiment [8], the binding result is on record as “binds weakly”.

For the molecule kindlin3 (from UniProt Q86UX7 1-667), the binding entry in experiment [1] and in experiment [3] was “binds” each time.

Take “mCherry-kindlin2 (from UniProt Q96AC1 1-680)”: the binding result is recorded as “no binding” in experiment [9] and “binds” with flag-ephrinB2 (human).

B1: GFP-zebrafish kindlin2 (protein, UniProt F1Q8X5 1-684)
chain: MALDGIRMPDGCYADGTWELKMHVTDLNRDVSLRVTGEIHIGGVMLKLVEKLDVKKDWSDHALWWEKKKTWLLKTHWTLDKYGIQADARLLFTPQHKLLRLQLPNMKHMRVKVNFSDRVFKAVSDICKTFNIRHPEELSLLRKPRDPKKKKKKLEDAEEETLELEGPLLTPGSGSIYSSPGLYSKTMTPTYDSRDGSPLSPTSAWFGDSPLSEGNPSILAVSQPITSPDILVKMYKPQSLLDKAKINQGWLDSSRSLMEQDVKENEVLLLRFKYHSFFDLNPKYDAIRVNQLYEQAKWAILLEEIECTEEEMMMFAALQYHINKLSIMSSDNHMNNSEKEVDEVDAALSDLEITLEGGKTSNTLGDITSIPELADYVKVFKPKKLTLKGYKQYWCTFKDITISCYKSREEAHGTPAHQMNLRGCEVTPDVNISGQKFNIKLLIPVADGMNEIWLRCDTEKQYAQWMAACRLASKGKTMADSSYNLEVQNILSFLKMQHMNPDPQIIEPITTDINPECLVSPRYLKKYKNKQPGFVRDLISARILEAHQNVAQMSLIEAKMRFIQAWQSLPEFGITHFLAKFQGGKKDELIGITYNRLIRMDAGTGDAIKTWRFSNMKQWNVNWEIKMVTVEFADEPSLAFICAEVDCKVVHEFIGGYIFLSTRAKDQNESLDEEMFYKLTSGWV
Regarding B1, the binding result in experiment [10] was “binds”; in experiment [11] it was “no binding”.
